According to PubChem BioAssay AID1508642 (National Center for Advancing Translational Sciences (NCATS), 2021):
Screen size: about 43,000 compounds; about 200 (0.47%) were called active. Roughly 12% stayed inconclusive and do not appear here. Calls follow the shape of the dose curve; as a rule, active = well fitted cell-killing curve with a large enough effect; inconclusive = small, poorly fitted or top-dose-only effect, or effect the other way; inactive = flat fitted curve, though single readings scatter. Some of the results follow.

Assay: Cell viability qHTS assay in S16 Pmp22-F2sN cells; also: nearly all actives have a fitted effect of over 65% in size
Settings: S16 Pmp22-F2sN Schwann cells (luciferase reporters placed in the Pmp22 gene) viability, CellTiter-Glo, 24 h; series mostly up to 57.5 µM; activity change, negative = cytotoxicity: at the top concentration
Procedure, shortened: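 Luminescence from CellTiter-Glo, read by CCD camera after a 15 min room-temperature incubation, served as the viability signal. Reporter Schwann cells (S16 Pmp22-F2sN) had been treated with pin-transferred compounds for 24 h at 37C.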
% is scaled to controls: 0 for no effect and ±100 for the full control effect; potency is read from the fitted curve at half-maximal effect.

Structure (SMILES)	activity change, negative = cytotoxicity	Potency
O=C1c2[nH]nc(-c3ccccc3O)c2C(c2ccccc2F)N1Cc1cccnc1 (configuration not stated)	inactive: 7.99%	–
COc1ccc(-c2noc(N(c3cccc(Cl)c3)c3nc(-c4ccc(OC)c(OC)c4)no3)n2)cc1OC	inactive: 0.14%	–
CCOc1cccc(C(=O)N2CCC(c3nc4ccccc4s3)CC2)c1	inactive: 10.3%	–
O=C(c1ccc(Br)cc1)N1CCN(CCc2ccncc2)CC1	inactive: -14.7%	–
COCCCNC(=O)c1cnc2c(-c3ccc(F)cc3)c(C)nn2c1C	inactive: -10.2%	–
CCOC(=O)C1CCN(C(c2cccc(F)c2)c2c(O)cc(C)n(Cc3ccco3)c2=O)CC1 (configuration not stated)	inactive: 15%	–
Cc1ccc(S(=O)(=O)Cc2ccc(C(=O)NCCc3ccc(Cl)cc3)o2)cc1	inactive: -8.87%	–
CCOc1ccc(-c2nc(SCC(=O)c3ccccc3)n[nH]2)cc1	inactive: 0.248%	–
CN(C)c1ccc(CNC(=O)c2cnc3sc(N4CCOCC4)nn3c2=O)cc1	inactive: -0.176%	–
CCN(CC)CCCNC(=O)Cc1ccc(NC(=O)N2CCCCc3ccccc32)cc1	inactive: 23.5%	–
O=c1oc2ccccc2cc1-c1nnc(Nc2ccc(Cl)cc2Cl)s1	inactive: 8.25%	–
CCC1Oc2ccc(C)cc2N(CC(=O)NCc2ccc(OC)cc2)C1=O (configuration not stated)	inactive: 20.5%	–
COc1cc(OC)c(NC(=O)C2CCN(C(=O)c3sc4nc[nH]c(=O)c4c3C)CC2)cc1Cl	inactive: 2.19%	–
CC(C)Oc1ccc(CNC(=O)C2CCN(c3nc4ccccc4nc3C(F)(F)F)CC2)cc1	–	active: 7.94 µM
Cc1ccc(-c2nc3cc(Cl)ccc3o2)cc1NC(=O)c1cc([N+](=O)[O-])ccc1N1CCOCC1	inactive: 0.322%	–
CC(=O)NC1CC(=O)N(c2ccc3c(c2)OCCO3)C1 (configuration not stated)	inactive: -9.26%	–
Cc1nc(-c2ccccc2)sc1-c1ccc(SCC(=O)Nc2cccc(C(F)(F)F)c2)nn1	inactive: -2.99%	–
CCC(=O)N1CCc2cc(Br)cc(S(=O)(=O)N3CCC(C(=O)Nc4ccccc4CC)CC3)c21	inactive: 2.54%	–
COc1ccc(CC(=O)NC2CC(=O)N(c3cccc(F)c3)C2)cc1OC (configuration not stated)	inactive: 10.4%	–
CCc1nn(CCCC(=O)N2CCN(c3cc(Cl)ccc3C)CC2)c(=O)c2cc3occc3n12	inactive: -16%	–
COc1ccccc1Nc1sc(C(=O)c2ccc3c(c2)OCO3)c(N)c1S(=O)(=O)c1ccccc1	inactive: 11.4%	–
CCOC(=O)c1c(C)n(S(=O)(=O)c2ccc(C)cc2C)c2ccc(NS(=O)(=O)c3ccc(C)cc3C)cc12	inactive: -0.757%	–
CC(C)Cn1cc(NC(=O)Nc2cccc(C(F)(F)F)c2)c2ccccc2c1=O	inactive: -17.2%	–
CC(=O)N1CCc2cc(S(=O)(=O)NC(CC(C)C)C(=O)Nc3ccc(C(C)C)cc3)ccc21 (configuration not stated)	inactive: -6.72%	–

Structure (SMILES)	activity change, negative = cytotoxicity	Potency
CCOc1ccc(CNC(=O)c2cccc(NC(=O)N3CCSc4ncccc43)c2)cc1	inactive: -11.9%	–
CCn1c(C(=O)N2CCC(C(=O)N3CCN(c4cc(C)ccc4C)CC3)CC2)cc2sccc21	inactive: -10%	–
CC(=O)N1c2ccc(S(=O)(=O)N3CCCCCC3)cc2CC1C(=O)NC(C)C (configuration not stated)	inactive: -13.3%	–
CCOC(=O)c1c(C)sc(-c2c(-c3ccc4c(c3)OCCO4)[nH]c3c2c(=O)n(C)c(=O)n3C)c1O	inactive: 2.92%	–
Cc1cc(-c2ccc(C)c(S(=O)(=O)N3CCC(C)CC3)c2)on1	inactive: -20.9%	–
CCOC(=O)N1CCc2c(sc3c2c(=O)n(Cc2ccccc2)c(=O)n3Cc2cc(C)ccc2C)C1	inactive: 6.91%	–
Cc1sc2ncn(CC(=O)Nc3ccc(F)cc3F)c(=O)c2c1S(=O)(=O)N1CCC(C)CC1	inactive: -0.0049%	–
CCOc1ccccc1NC(=O)N1CCC(n2c(C)nc3cccnc32)CC1	inactive: 3.58%	–
COc1ccc(NC(=O)c2cc3nc(-c4ccc(Cl)c(Cl)c4)cc(C(F)(F)F)n3n2)c(OC)c1	inactive: 13.3%	–
COc1cccc(N2CCN(S(=O)(=O)c3cn(C)c(C)n3)CC2)c1	inactive: -9.34%	–
Cc1c(-c2nnc(SCC(=O)Nc3ccccc3F)o2)nnn1-c1ccc(F)cc1	inactive: -2.11%	–
COc1ccc(CNC(=O)CCc2cn(C)c3ccccc23)cc1	inactive: -2.46%	–
COc1ccc(C(=O)NC2CC(=O)N(c3ccc4c(c3)OCCO4)C2)cc1 (configuration not stated)	inactive: 4.41%	–
CCOC(=O)c1ccc(NC(=O)C2CCCN(c3ccc(Sc4ccc(C)cc4)nn3)C2)cc1 (configuration not stated)	inactive: 4.71%	–
CC(C)c1nc2ccc(C(=O)NCCCN3CCN(c4ccccc4F)CC3)cc2o1	inactive: -5.7%	–
COC(=O)c1ccc(-n2nnc(-c3nc(-c4ccc5c(c4)OCO5)no3)c2C)cc1	inactive: 3.7%	–
CCN(C(=O)CN(C)S(=O)(=O)c1ccc2c(c1)c(=O)n(C)c(=O)n2C)c1ccc(OC)cc1	inactive: -7.58%	–
Cc1cc(Br)ccc1NC(=O)CCS(=O)(=O)c1cccc2nsnc12	inactive: -2.84%	–
COc1ccccc1CNC(=O)C(CC(C)C)NS(=O)(=O)c1ccc2c(c1)oc(=O)n2C (configuration not stated)	inactive: 1.89%	–
Cn1c(=NC(=O)c2ccc3c(c2)OCCO3)sc2cc(S(C)(=O)=O)ccc21	inactive: 5.96%	–
CCC(=O)N1CCc2cc(S(=O)(=O)NCCC(=O)NCc3ccccc3Cl)ccc21	inactive: -1.36%	–
Cc1ccccc1-c1noc(C(C)NC(=O)c2ccco2)n1 (configuration not stated)	inactive: -15.6%	–
Cc1ccc(C(C)C)c(OCC(=O)Nc2ccc(S(=O)(=O)Nc3onc(C)c3C)cc2)c1	inactive: 6.98%	–
